Experimental data from PubChem BioAssay AID1476 (National Center for Advancing Translational Sciences (NCATS), 2009).
“And” between values parts separate entries of the source, which are not always exact repeats. Identical values can stand only once. In all, about 200,000 compounds went through this assay and about 4,500 (2.2%) were called active. This list was built around the results that the source calls inconclusive (neither active nor inactive); the mix of calls is not that of the screen. Calls follow the shape of the dose curve; as a rule, active = well fitted inhibition curve with a large enough effect; inconclusive = small, poorly fitted or top-dose-only effect, or effect the other way; inactive = flat fitted curve, though single readings scatter. A potency beside an inconclusive call is a rough fit, not a confirmed value.

What follows are compounds tested against Cruzipain (Trypanosoma cruzi) (UniProt P25779) (assay: qHTS Assay for Promiscuous and Specific Inhibitors of Cruzain (without detergent)). Conditions: purified cruzain, Z-FR-AMC fluorescence, no detergent.
UniProt P25779, sequence (P25779 whole entry, looked up): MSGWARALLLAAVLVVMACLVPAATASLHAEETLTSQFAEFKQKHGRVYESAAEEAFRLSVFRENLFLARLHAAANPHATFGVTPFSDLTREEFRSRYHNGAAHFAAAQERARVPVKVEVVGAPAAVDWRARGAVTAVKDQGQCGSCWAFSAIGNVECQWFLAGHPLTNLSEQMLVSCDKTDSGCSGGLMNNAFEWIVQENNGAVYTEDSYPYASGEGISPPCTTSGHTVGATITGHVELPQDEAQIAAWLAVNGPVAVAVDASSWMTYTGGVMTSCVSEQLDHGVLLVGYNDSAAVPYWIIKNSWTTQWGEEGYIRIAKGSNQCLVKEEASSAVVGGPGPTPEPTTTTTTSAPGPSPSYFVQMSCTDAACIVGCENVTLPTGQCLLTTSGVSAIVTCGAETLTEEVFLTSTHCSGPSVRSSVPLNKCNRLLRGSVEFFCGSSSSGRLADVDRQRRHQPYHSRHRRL
Procedure, shortened: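 Purified cruzain at 1.5 nM, pre-incubated 15 min with compound at room temperature in 100 mM sodium acetate pH 5.5, 5 mM DTT, 0.00005% Triton X-100. Reaction started with 2 uM Z-FR-AMC; AMC fluorescence increase over 60 s gives rate.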
Also: nearly all actives have a fitted effect of over 40% in size.
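For max response, negative = inhibition in this document: plate controls were enzyme without inhibitor for no effect and buffer without enzyme for full effect.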
Potency is read from the fitted curve at half-maximal effect; tags tell the direction and shape of the fitted curve.

| Compound | Potency | max response, negative = inhibition |
| --- | --- | --- |
| Cc1ccc(N=Cc2nc(/C=C/c3cccc([N+](=O)[O-])c3)oc2O)cc1 | active: 5.01 µM | – |
| O=C(COc1ccc2c(c1)OCO2)Nc1ccc2c(c1)oc1ccccc12 | active: 10 µM | – |
| C(=N\Nc1nc(-c2ccccc2)cs1)/c1ccco1 | inconclusive: 31.6 µM [inhibitor, single point] | – |
| C[N+]1(C)C2CCC1CC(OC(=O)c1c[nH]c3ccccc13)C2 (centres undefined) | inconclusive: 31.6 µM [activator, partial curve] | – |
| O=C(NCc1cccc(F)c1)c1ccc(N2C(=O)Cn3c(cc4sccc43)C2=O)cc1 | active: 25.1 µM | – |
| COc1ccc(CCNC(=O)c2cc(C(=O)c3cc(Cl)ccc3O)cn(CCc3ccc(OC)cc3)c2=O)cc1 | inconclusive: 31.6 µM [inhibitor, single point] | – |
| COc1ccc(S(=O)(=O)Cc2ccc(C(=O)N3CCN(c4ccccc4)CC3)o2)cc1 | inconclusive: 39.8 µM [activator, single point] | – |
| CCOc1ccccc1-c1cc(C(=O)N/N=C/c2ccc3c(c2)OCO3)c2ccccc2n1 | inconclusive: 39.8 µM [inhibitor, single point] | – |
| COc1ccc(NC(=O)C2CCCN(S(=O)(=O)c3cn(C)cn3)C2)cc1Cl (centres undefined) | – | inactive: -7.04% |
| COCCNC(=O)Cn1c(=O)n(Cc2ccc(C(=O)NCCc3ccc(OC)c(OC)c3)cc2)c(=O)c2ccccc21 | inconclusive: 31.6 µM [activator, single point] | – |
| COc1cc(Cl)c(C)cc1NC(=O)CCCN1C(=O)C(c2ccccc2)Oc2cccnc21 (centres undefined) | – | inactive: -2.06% |
| Cc1ccc(C2NC(=S)NC(c3ccc(C)cc3)C23C(=O)NC(=O)NC3=O)cc1 (centres undefined) | – | inactive: 1.22% |
| S=C(NCCN1CCOCC1)N/N=C/c1c2ccccc2cc2ccccc12 | inconclusive: 31.6 µM [inhibitor, single point] | – |
| CCc1cccc(C)c1NS(=O)(=O)c1c(C(=O)N2CCCCCC2)c(C)n(C)c1C | inconclusive: 31.6 µM [activator, single point] | – |
| Cc1ccc(Cl)cc1N1CCN(C(=O)CN2C(=O)COc3ccc(S(=O)(=O)N4CCOCC4)cc32)CC1 | inconclusive: 5.01 µM [activator, full curve] | – |
| COc1ccc(Cl)cc1NC(=O)Cn1nnc2sc3c(c2c1=O)CCC(C(C)(C)C)C3 (centres undefined) | – | inactive: 5.67% |
| CC(=O)c1ccc(NC2=NS(=O)(=O)c3ccccc32)cc1 | – | inactive: 5.45% |
| COc1c(Cl)cc(C(=O)Nc2cccc(-c3nc4ccccc4[nH]3)c2)cc1Cl | inconclusive: 15.8 µM [inhibitor, single point] | – |
| COC(=O)CC1C2(C)CC34OC5(C)O[C@@]6(C7/C(=C(/O)C(C)C)C(=O)OC(c8ccoc8)[C@]7(C)C(OC(C)=O)C(OC(C)=O)[C@]6(O5)[C@@]13C)C(OC(C)=O)[C@]4(O)C2OC(=O)C(C)C (some centres undefined) | inconclusive: 15.8 µM [activator, partial curve] | – |
| O=C(Nc1nnc(S(=O)(=O)N2CCCCCC2)s1)c1ccc(Br)cc1 | inconclusive: 25.1 µM [inhibitor, single point] | – |
| COc1ccc(C2c3[nH]c4ccccc4c3CC3C(=O)N(CCc4ccc(OC)c(OC)c4)CC(=O)N32)cc1 (centres undefined) | inconclusive: 39.8 µM [activator, single point] | – |
| O=C(O)CCC(=O)N1CCCC1C(=O)O (centres undefined) | – | inactive: 3.39% |

| Compound | Potency | max response, negative = inhibition |
| --- | --- | --- |
| Cc1ccc(C(=O)c2sc(Nc3ccccc3F)c(S(=O)(=O)c3ccccc3)c2N)c(C)c1 | active: 6.31 µM | – |
| Clc1ccccc1-c1cc(NCc2ccccc2)ncn1 | – | inactive: 2.76% |
| Cc1ccc2[nH]c(C)c(CCNC(=O)c3cc4cc([N+](=O)[O-])ccc4oc3=O)c2c1 | inconclusive: 39.8 µM [inhibitor, single point] | – |
| Cc1cc(C)c(S(=O)(=O)Nc2cc(-c3cn4ccccc4n3)ccc2C)cc1C | inconclusive: 39.8 µM [inhibitor, single point] | – |
| CCC1=Nc2cc(C(=O)NCCCOC)ccc2Sc2ccccc21 | inconclusive: 39.8 µM [activator, single point] | – |
| CCn1cc2nc(SCC(=O)Nc3cccc(Cl)c3C)n(Cc3ccc(Cl)cc3)c(=O)c2n1 | inconclusive: 25.1 µM [activator, single point] | – |
| Cc1ccc(S(=O)(=O)Nc2ccc(S(=O)(=O)N3CCCC3)cc2)cc1 | – | inactive: 0.168% |
| Cc1ccc(C(=O)NCC(=O)OCC(=O)Nc2ccccc2[N+](=O)[O-])cc1 | active: 7.94 µM | – |
| CCCCCCCCCCCCOS(=O)(=O)O | inconclusive: 25.1 µM [activator, partial curve] and inconclusive: 31.6 µM [activator, partial curve] | – |
| Cc1cccc(S(=O)(=O)c2c(N)n(-c3ccccc3)c3nc4ccccc4nc23)c1 | inconclusive: 7.94 µM [inhibitor, single point] | – |
| O=C(NC(=S)Nc1ccc(N2CCOCC2)c(Cl)c1)c1cncc(Br)c1 | – | inactive: -9.31% |
| Cc1ccc(Nc2nc(-c3sc(NC(=O)c4ccc([N+](=O)[O-])cc4)nc3C)cs2)cc1 | active: 7.94 µM | – |
| Clc1cccc(/C(Cc2nc3ccccc3[nH]2)=N\Nc2ccccc2)c1 | inconclusive: 39.8 µM [inhibitor, single point] | – |
| Cc1cc(C)c(S(=O)(=O)Nc2ccc(-c3ccc(N4CCCCC4)nn3)cc2)cc1C | inconclusive: 39.8 µM [inhibitor, single point] | – |
| COc1cc(/C=N/NC(=O)c2ccc(CSc3nc4ccccc4[nH]3)cc2)cc(OC)c1OC | inconclusive: 15.8 µM [activator, partial curve, poor fit] | – |
| COc1cccc(/C=N/NC(=O)c2[nH]nc3c2CCc2ccccc2-3)c1O | inconclusive: 31.6 µM [inhibitor, single point] | – |
| Cc1nnc(NC(=O)c2ccc(-c3cccc(C(F)(F)F)c3)o2)s1 | active: 12.6 µM | – |
| COc1ccc(-c2noc(CSc3nnc(-c4ccncc4)n3-c3ccc(OC)cc3)n2)cc1 | inconclusive: 31.6 µM [activator, single point] | – |
| O=C(CN1C(=O)c2ccccc2C1=O)Nc1sc2c(c1C(=O)NCc1ccco1)CCCC2 | inconclusive: 31.6 µM [inhibitor, single point] | – |
| O=C(NC1CC(=O)N(c2ccc(F)cc2)C1)C(c1ccccc1)c1ccccc1 (centres undefined) | – | inactive: -1.06% |
| O=C(Nc1cccc(-c2nc3ccccc3[nH]2)c1)c1cccc(NC(=O)c2ccco2)c1 | active: 5.01 µM | – |
| CCOC(=O)C1=C(C)NC(C)=C(C(=O)OCC)C1c1ccc(OC)cc1 | inconclusive: 25.1 µM [activator, single point] | – |

| Compound | Potency | max response, negative = inhibition |
| --- | --- | --- |
| Cc1cc(N2CCN(c3ccccc3)CC2)n2c(n1)nc1ccccc12 | inconclusive: 39.8 µM [activator, single point] | – |
| CCOc1ccc(CN2C(=O)c3ccccc3Sc3ccc(C(=O)NC4CCC(C)CC4)cc32)cc1 (centres undefined) | active: 5.01 µM | – |
| Cc1ccc(N=Nc2c(N)[nH]n3c(=O)cc(-c4ccccc4)nc23)cc1 | – | inactive: -20.3% |
| CCOC(=O)c1sc(NC(=O)COC(=O)CNC(=O)c2ccco2)c(C(=O)OCC)c1C | inconclusive: 39.8 µM [activator, single point] | – |
| Cc1cc(C)c(NC(=O)COC(=O)/C=C/c2cccs2)c(C)c1 | inconclusive: 31.6 µM [inhibitor, single point] | – |
| O=c1c2ccccc2nc(-c2ccc(Cl)cc2)n1CCCCOc1ccc(F)cc1 | – | inactive: -5.41% |
| O=C1N/C(=N\N=C\c2ccccn2)SC1Cc1cccc(SC(F)F)c1 (centres undefined) | inconclusive: 25.1 µM [inhibitor, single point] | – |
| Cc1ccc(C(=O)C(OC(=O)COc2ccccc2C)c2ccccc2)cc1 (centres undefined) | inconclusive: 31.6 µM [inhibitor, single point] | – |
| CCc1cc2c(-c3ccccc3)cc(=O)oc2c2c1OCN(Cc1ccc(C)cc1)C2 | inconclusive: 10 µM [inhibitor, partial curve] | – |
| CCn1cc(/C=N\NC(=O)c2ccc3c(c2)c(C)c(C)n3Cc2ccccc2)c(C)n1 | inconclusive: 39.8 µM [activator, single point] | – |
| CC(=O)c1ccc(NC(=O)c2nn(C)c3c2COc2ccccc2-3)cc1 | – | inactive: 14.3% |
| CC(=O)c1cccc(NC(=O)c2ccc(N(Cc3ccccc3C)S(C)(=O)=O)cc2)c1 | inconclusive: 39.8 µM [activator, single point] | – |
| CCOc1ccc(C(=O)Nc2cc(-c3nc4ccccc4[nH]3)ccc2Cl)cc1[N+](=O)[O-] | inconclusive: 39.8 µM [inhibitor, single point] | – |
| Cc1ccc(NC(=O)CN2C(=O)c3ccccc3Sc3ncccc32)c(C)c1 | inconclusive: 31.6 µM [activator, single point] | – |
| O=C(NCCc1ccc(Cl)cc1)c1ccc2c(c1)N(Cc1ccccc1)C(=O)CS2 | active: 31.6 µM | – |
| CC(=O)c1c(O)cc(=O)n(-c2ccccc2)c1-c1ccc(Cl)cc1 | inconclusive: 39.8 µM [inhibitor, single point] | – |
| COc1ccccc1NC(=O)C1=C(C)Nc2nc(SCc3ccccc3)nn2C1c1cccs1 (centres undefined) | – | inactive: 12.7% |
| CN1CCN(C(=S)Nc2ccc(Cl)cc2Cl)CC1 | active: 1.58 µM | – |
| CC1(c2cc([N+](=O)[O-])cc([N+](=O)[O-])c2)CC(C)(C)N(C(=O)c2ccccc2)c2ccccc21 (centres undefined) | active: 10 µM | – |
| O=C(COc1ccc(/C=N/NS(=O)(=O)c2ccccc2)cc1)Nc1cccc(Cl)c1 | – | inactive: -14.3% |
